{
  "source": "the supplement of paper PMC8813932",
  "note": "Counter-ions that a name gives are not always drawn. ± gives the standard deviation of the averaged measurements. This is one part of the list. Most values come without repeats; read them as rough.",
  "data": [
    {"test_system": "OVCAR4", "assay": "log2 surviving fraction relative to plate median (drug vs vehicle, or drug+dl922-947 vs dl922-947 alone); ovarian cancer lines: OVCAR4 is platinum-sensitive while Ov4Cis resists cisplatin and Ov4Carbo carboplatin; higher = more cell survival", "settings": "dl922-947 oncolytic adenovirus co-treatment: none; compound concentration: 10 uM; 192 h", "values": [
      {"smiles": "NCCCC(O)(P(=O)(O)O)P(=O)(O)O", "note": "[Alendronate (Fosamax)]", "log2 surviving fraction": "0.244 ± 0.11"},
      {"smiles": "NCCc1c[nH]c2ccc(O)cc12", "note": "[Serotonin HCl]", "log2 surviving fraction": "0.308 ± 0.44"},
      {"smiles": "COc1ccc(CC2c3cc(OC)c(OC)cc3CC[N+]2(C)CCC(=O)OCCCCCOC(=O)CC[N+]2(C)CCc3cc(OC)c(OC)cc3C2Cc2ccc(OC)c(OC)c2)cc1OC", "note": "(stereo not given) [Atracurium besylate]", "log2 surviving fraction": "-0.0402 ± 0.038"},
      {"smiles": "Nc1nc(F)nc2c1ncn2[C@@H]1O[C@H](COP(=O)(O)O)[C@@H](O)[C@@H]1O", "note": "[Fludarabine Phosphate (Fludara)]", "log2 surviving fraction": "1.73 ± 2"},
      {"smiles": "NCC[C@H](O)C(=O)N[C@@H]1C[C@H](N)[C@@H](O[C@H]2O[C@H](CN)[C@@H](O)[C@H](O)[C@H]2O)[C@H](O)[C@H]1O[C@H]1O[C@H](CO)[C@@H](O)[C@H](N)[C@H]1O", "note": "[Amikacin sulfate]", "log2 surviving fraction": "0.581 ± 0.072"},
      {"smiles": "O[C@@H]1CO[C@H]2[C@@H]1OC[C@@H]2O", "note": "[Isosorbide]", "log2 surviving fraction": "0.535 ± 0.48"},
      {"smiles": "C=C[C@H]1CN2CC[C@H]1C[C@H]2[C@H](O)c1ccnc2ccc(OC)cc12", "note": "[Quinine hydrochloride dihydrate]", "log2 surviving fraction": "-0.485 ± 0.7"},
      {"smiles": "Fc1ccc(C(c2ccc(F)cc2)N2CCN(C/C=C/c3ccccc3)CC2)cc1", "note": "[Flunarizine 2HCl]", "log2 surviving fraction": "-1.98 ± 0.64"},
      {"smiles": "CC(=O)[C@H]1CC[C@H]2[C@@H]3C[C@H](C)C4=CC(=O)CC[C@]4(C)[C@H]3[C@@H](O)C[C@]12C", "note": "[Medrysone]", "log2 surviving fraction": "0.616 ± 0.3"},
      {"smiles": "O=C(NC(Cc1cc(=O)[nH]c2ccccc12)C(=O)O)c1ccc(Cl)cc1", "note": "(stereo not given) [Rebamipide]", "log2 surviving fraction": "-0.334 ± 0.18"},
      {"smiles": "Nc1c2ccccc2nc2ccccc12", "note": "[9-Aminoacridine]", "log2 surviving fraction": "-7.95 ± 12"},
      {"smiles": "Cn1c(=O)c2c(ncn2CC2OCCO2)n(C)c1=O", "note": "[Doxofylline]", "log2 surviving fraction": "-0.621 ± 0.86"},
      {"smiles": "CCOc1ccccc1OC(c1ccccc1)C1CNCCO1", "note": "(stereo not given) [Reboxetine mesylate]", "log2 surviving fraction": "-0.509 ± 0.24"},
      {"smiles": "CCC(=O)NCC[C@@H]1CCc2ccc3c(c21)CCO3", "note": "[Ramelteon (TAK-375)]", "log2 surviving fraction": "1.35 ± 1.4"},
      {"smiles": "Cc1nc2n(c(=O)c1CCN1CCC(c3noc4cc(F)ccc34)CC1)CCCC2O", "note": "(stereo not given) [Paliperidone (Invega)]", "log2 surviving fraction": "0.0891 ± 0.092"},
      {"smiles": "NCCc1ccc(O)c(O)c1", "note": "[Dopamine hydrochloride (Inotropin)]", "log2 surviving fraction": "-0.0334 ± 0.035"},
      {"smiles": "C#CCC(Cc1cnc2nc(N)nc(N)c2n1)c1ccc(C(=O)N[C@@H](CCC(=O)O)C(=O)O)cc1", "note": "(stereo not given in full) [Pralatrexate (Folotyn)]", "log2 surviving fraction": "-5.19 ± 0.3"},
      {"smiles": "CN(CCOc1ccc(NS(C)(=O)=O)cc1)CCc1ccc(NS(C)(=O)=O)cc1", "note": "[Dofetilide (Tikosyn)]", "log2 surviving fraction": "0.65 ± 0.035"},
      {"smiles": "Cc1cc(=O)n(-c2ccccc2)n1C", "note": "[Antipyrine]", "log2 surviving fraction": "0.418 ± 0.038"},
      {"smiles": "C[C@H](CCC(=O)O)[C@H]1CC[C@H]2[C@@H]3[C@@H](O)C[C@@H]4C[C@H](O)CC[C@]4(C)[C@H]3CC[C@]12C", "note": "[Ursodiol (Actigal Urso)]", "log2 surviving fraction": "0.598 ± 0.39"},
      {"smiles": "O=S(=O)(O)NC1CCCCC1", "note": "[Cyclamic  acid]", "log2 surviving fraction": "0.539 ± 0.38"},
      {"smiles": "COc1ccc2cc1Oc1ccc(cc1)C[C@H]1c3c(cc4c(c3Oc3cc5c(cc3OC)CCN(C)[C@@H]5C2)OCO4)CCN1C", "note": "[Cepharanthine]", "log2 surviving fraction": "-0.714 ± 0.75"},
      {"smiles": "O=c1[nH]cnc2c1ncn2[C@H]1CC[C@@H](CO)O1", "note": "[Didanosine (Videx)]", "log2 surviving fraction": "-0.58 ± 0.0042"},
      {"smiles": "Fc1ccc([C@@H]2CCNC[C@H]2COc2ccc3c(c2)OCO3)cc1", "note": "[Paroxetine HCl]", "log2 surviving fraction": "-4.6 ± 0.33"},
      {"smiles": "CC(C)NCC(O)COc1ccc(COCCOC(C)C)cc1", "note": "(stereo not given) [Bisoprolol]", "log2 surviving fraction": "0.981 ± 0.05"},
      {"smiles": "CC(=O)O[C@H]1C[C@@H]2CC[C@@H]3[C@H](CC[C@@]4(C)[C@H]3C[C@H]([N+]3(C)CCCCC3)[C@@H]4OC(C)=O)[C@@]2(C)C[C@@H]1N1CCCCC1", "note": "[Vecuronium Bromide]", "log2 surviving fraction": "0.274 ± 0.23"},
      {"smiles": "CCCCOc1cc(C(=O)NCCN(CC)CC)c2ccccc2n1", "note": "[Dibucaine HCL]", "log2 surviving fraction": "0.12 ± 1.1"},
      {"smiles": "CNC(=O)CN(CCN(CCN(CC(=O)O)CC(=O)NC)CC(=O)O)CC(=O)O.O.[Gd]", "note": "[Gadodiamide (Omniscan)]", "log2 surviving fraction": "-0.116 ± 0.037"},
      {"smiles": "COc1cc2nc(N(C)CCCNC(=O)C3CCCO3)nc(N)c2cc1OC", "note": "(stereo not given) [Alfuzosin hydrochloride (Uroxatral)]", "log2 surviving fraction": "0.258 ± 0.6"},
      {"smiles": "CCOC(=O)c1c(C)n(C)c2ccc(O)cc12", "note": "[Mecarbinate]", "log2 surviving fraction": "0.434 ± 0.37"},
      {"smiles": "COc1ccc(C2CNC(=O)C2)cc1OC1CCCC1", "note": "(stereo not given) [Rolipram]", "log2 surviving fraction": "-1.05 ± 2.1"},
      {"smiles": "CCC1=C[C@@H]2CN(C1)Cc1c([nH]c3ccccc13)[C@@](C(=O)OC)(c1cc3c(cc1OC)N(C)[C@H]1[C@@](O)(C(=O)OC)[C@H](OC(C)=O)[C@]4(CC)C=CCN5CC[C@]31[C@@H]54)C2", "note": "[Vinorelbine (Navelbine)]", "log2 surviving fraction": "-6.56 ± 2.9"},
      {"smiles": "CC/C(=C(/CC)c1ccc(O)cc1)c1ccc(O)cc1", "note": "[Diethylstilbestrol (Stilbestrol)]", "log2 surviving fraction": "-3.49 ± 1.3"},
      {"smiles": "O=NN(CCCl)C(=O)NC1CCCCC1", "note": "[Lomustine (CeeNU)]", "log2 surviving fraction": "0.0483 ± 0.38"},
      {"smiles": "COc1cc(/C=C/C(=O)CC(=O)/C=C/c2ccc(O)c(OC)c2)ccc1O", "note": "[Curcumin]", "log2 surviving fraction": "-3.01 ± 2"},
      {"smiles": "O=C1NC(=O)C(c2ccccc2)(c2ccccc2)N1", "note": "[Phenytoin (Lepitoin)]", "log2 surviving fraction": "-0.0872 ± 0.33"},
      {"smiles": "CCCC(=O)OCOC(=O)C1=C(C)NC(C)=C(C(=O)OC)C1c1cccc(Cl)c1Cl", "note": "(stereo not given) [Cleviprex (Clevidipine)]", "log2 surviving fraction": "0.23 ± 0.51"},
      {"smiles": "O=P(O)(O)C(O)(Cn1ccnc1)P(=O)(O)O", "note": "[Zoledronic Acid (Zoledronate)]", "log2 surviving fraction": "0.569 ± 0.73"},
      {"smiles": "CC1(C)S[C@@H]2[C@H](NC(=O)[C@H](N)c3ccccc3)C(=O)N2[C@H]1C(=O)O", "note": "[Ampicillin sodium]", "log2 surviving fraction": "-0.434 ± 0.037"},
      {"smiles": "Cc1c(C(=O)NN2CCCCC2)nn(-c2ccc(Cl)cc2Cl)c1-c1ccc(Cl)cc1", "log2 surviving fraction": "-3.22 ± 0.71"}
    ]}
  ]
}
